T1: intermediate-affinity hIL-2 receptor (IL-2Rβγ) on TF1+IL-2Rβ cells (human, UniProt P14784 27-551; P31785 23-369)
T1 sequence 1: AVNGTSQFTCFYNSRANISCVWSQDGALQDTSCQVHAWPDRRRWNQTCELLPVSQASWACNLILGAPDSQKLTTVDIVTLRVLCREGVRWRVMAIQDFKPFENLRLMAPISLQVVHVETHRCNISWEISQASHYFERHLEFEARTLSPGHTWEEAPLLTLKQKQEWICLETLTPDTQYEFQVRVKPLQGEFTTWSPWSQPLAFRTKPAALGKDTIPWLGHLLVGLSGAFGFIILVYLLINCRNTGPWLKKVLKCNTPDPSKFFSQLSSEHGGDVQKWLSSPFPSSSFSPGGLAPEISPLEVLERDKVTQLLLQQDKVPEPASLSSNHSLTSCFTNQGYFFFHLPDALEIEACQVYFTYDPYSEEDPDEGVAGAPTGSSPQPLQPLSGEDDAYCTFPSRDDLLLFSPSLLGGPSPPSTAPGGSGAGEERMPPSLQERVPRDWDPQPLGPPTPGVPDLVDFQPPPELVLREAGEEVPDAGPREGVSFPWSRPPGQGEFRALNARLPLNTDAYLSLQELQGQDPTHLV
T1 sequence 2: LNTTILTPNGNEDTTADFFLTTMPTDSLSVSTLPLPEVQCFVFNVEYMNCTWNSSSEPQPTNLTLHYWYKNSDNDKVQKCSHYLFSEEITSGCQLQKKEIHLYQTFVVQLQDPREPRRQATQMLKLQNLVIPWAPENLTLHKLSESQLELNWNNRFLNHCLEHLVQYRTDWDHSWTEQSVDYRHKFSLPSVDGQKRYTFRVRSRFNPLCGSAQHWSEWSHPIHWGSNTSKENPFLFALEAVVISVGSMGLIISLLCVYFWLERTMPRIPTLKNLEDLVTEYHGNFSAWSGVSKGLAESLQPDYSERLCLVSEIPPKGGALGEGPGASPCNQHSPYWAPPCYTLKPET

T2: high-affinity hIL-2 receptor (IL-2Rαβγ) on NK-92 cells (human, UniProt P01589 22-272; P14784 27-551; P31785 23-369)
T2 sequence 1: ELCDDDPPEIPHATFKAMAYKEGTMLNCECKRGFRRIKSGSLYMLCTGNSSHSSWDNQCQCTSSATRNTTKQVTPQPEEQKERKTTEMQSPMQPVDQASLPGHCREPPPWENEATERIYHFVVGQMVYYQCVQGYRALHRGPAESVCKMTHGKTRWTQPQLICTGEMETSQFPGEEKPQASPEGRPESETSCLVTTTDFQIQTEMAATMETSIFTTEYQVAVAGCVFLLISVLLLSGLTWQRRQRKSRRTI
T2 sequence 2: T1 sequence 1
T2 sequence 3: T1 sequence 2

B1: 2H7-hIgG1-df-hIL-2 (T3A/D20A/R38E/C125A) (other)
heavy: EVQLLESGGGLVQPGGSLRLSCAASGFTFKDYCMTWVRQAPGKGLEWVSAIVYSGGSTYYADSVKGRFTISRDNSKNTLYLQMNNLRAEDTAVYYCAKYTRASYFYDAMDVWGQGTTVTVSS[not shown - human IgG1 constant region]APASSSTKKTQLQLEHLLLALQMILNGINNYKNPKLTEMLTFKFYMPKKATELKHLQCLEEELKPLEEVLNLAQSKNFHLRPRDLISNINVIVLELKGSETTFMCEYADETATIVEFLNRWITFAQSIISTLT
light: EIVLTQSPGTLSLSPGERATLSCRASQSIGKSFLAWYQQKPGQAPRLLIYDASTRAADIPARFSGSGSGTDFTLTISSLEPEDFAVYYCQQYYDWPPLSFGGGTKVEIKRTVAAPSVFIFPPSDEQLKSGTASVVCLLNNFYPREAKVQWKVDNALQSGNSQESVTEQDSKDSTYSLSSTLTLSKADYEKHKVYACEVTHQGLSSPVTKSFNRGEC
B2: 2H7-hIgG1-LE-df-hIL-2 (T3A/R38E/D84K/C125A) (other)
heavy: EVQLLESGGGLVQPGGSLRLSCAASGFTFKDYCMTWVRQAPGKGLEWVSAIVYSGGSTYYADSVKGRFTISRDNSKNTLYLQMNNLRAEDTAVYYCAKYTRASYFYDAMDVWGQGTTVTVSS[not shown - human IgG1 constant region with changes]APASSSTKKTQLQLEHLLLDLQMILNGINNYKNPKLTEMLTFKFYMPKKATELKHLQCLEEELKPLEEVLNLAQSKNFHLRPRKLISNINVIVLELKGSETTFMCEYADETATIVEFLNRWITFAQSIISTLT
light: B1 light
B3: 2H7-hIgG1-LE-df-hIL-2 (T3A/D20A/R38E/C125A) (other)
heavy: EVQLLESGGGLVQPGGSLRLSCAASGFTFKDYCMTWVRQAPGKGLEWVSAIVYSGGSTYYADSVKGRFTISRDNSKNTLYLQMNNLRAEDTAVYYCAKYTRASYFYDAMDVWGQGTTVTVSS[not shown - human IgG1 constant region with changes]APASSSTKKTQLQLEHLLLALQMILNGINNYKNPKLTEMLTFKFYMPKKATELKHLQCLEEELKPLEEVLNLAQSKNFHLRPRDLISNINVIVLELKGSETTFMCEYADETATIVEFLNRWITFAQSIISTLT
light: B1 light
B4: 2H7-hIgG1-df-hIL-2 (T3A/R38E/I92K/C125A) (other)
heavy: EVQLLESGGGLVQPGGSLRLSCAASGFTFKDYCMTWVRQAPGKGLEWVSAIVYSGGSTYYADSVKGRFTISRDNSKNTLYLQMNNLRAEDTAVYYCAKYTRASYFYDAMDVWGQGTTVTVSS[not shown - human IgG1 constant region]APASSSTKKTQLQLEHLLLDLQMILNGINNYKNPKLTEMLTFKFYMPKKATELKHLQCLEEELKPLEEVLNLAQSKNFHLRPRDLISNINVKVLELKGSETTFMCEYADETATIVEFLNRWITFAQSIISTLT
light: B1 light
B5: 2H7-hIgG4-df-hIL-2 (T3A/R38E/D84K/C125A) (other)
heavy: EVQLLESGGGLVQPGGSLRLSCAASGFTFKDYCMTWVRQAPGKGLEWVSAIVYSGGSTYYADSVKGRFTISRDNSKNTLYLQMNNLRAEDTAVYYCAKYTRASYFYDAMDVWGQGTTVTVSSASTKGPSVFPLAPCSRSTSESTAALGCLVKDYFPEPVTVSWNSGALTSGVHTFPAVLQSSGLYSLSSVVTVPSSSLGTKTYTCNVDHKPSNTKVDKRV[not shown - human IgG4 Fc with S228P (EU numbers)]APASSSTKKTQLQLEHLLLDLQMILNGINNYKNPKLTEMLTFKFYMPKKATELKHLQCLEEELKPLEEVLNLAQSKNFHLRPRKLISNINVIVLELKGSETTFMCEYADETATIVEFLNRWITFAQSIISTLT
light: B1 light
B6: 1H3-hIgG1-L6-hIL-2 (H16A) (other)
heavy: EVQLVESGGGLVQPGRSLKLSCAVSGFTFSDYAMAWVRQAPKKGLEWVATISYDGSRTYYRDSVKGRFTISRDNAKITLYLQMDSLRSEDTATYYCARHGSGYFDYWGQGVMVTVSS[not shown - about 450 residues with a human IgG1 Fc and changes]
light: DTVLTQSPALAVSPGERVTISCRASESVRTGVHWYQQKPGQQPKLLIYGASNLESGVPARFSGSGSGTDFTLTIDPVEADDTATYFCQQSWNDPFTFGSGTKLEIKRTVAAPSVFIFPPSDEQLKSGTASVVCLLNNFYPREAKVQWKVDNALQSGNSQESVTEQDSKDSTYSLSSTLTLSKADYEKHKVYACEVTHQGLSSPVTKSFNRGEC
B7: 1H3-hIgG1-L6-hIL-2 (H16A/F42A) (other)
heavy: EVQLVESGGGLVQPGRSLKLSCAVSGFTFSDYAMAWVRQAPKKGLEWVATISYDGSRTYYRDSVKGRFTISRDNAKITLYLQMDSLRSEDTATYYCARHGSGYFDYWGQGVMVTVSS[not shown - about 450 residues with a human IgG1 Fc and changes]
light: B6 light
B8: 1H3-hIgG1-L6-hIL-2 (F42A) (other)
heavy: EVQLVESGGGLVQPGRSLKLSCAVSGFTFSDYAMAWVRQAPKKGLEWVATISYDGSRTYYRDSVKGRFTISRDNAKITLYLQMDSLRSEDTATYYCARHGSGYFDYWGQGVMVTVSS[not shown - about 450 residues with a human IgG1 Fc and changes]
light: B6 light
B9: C51E6-5-hIgG4-LE-df-hIL-2 (T3A/D20A/R38E/C125A) (other)
heavy: QVQLVQSGSELKKPGASVKVSCKASGYSLYGTSMHWVRQAPGQGLEWMGYISPFTGRATYAQGFTGRFVFSLDTSVSTAYLQISSLKAEDTAVYYCARDYDYRYYYAMDYWGQGTTVTVSSASTKGPSVFPLAPCSRSTSESTAALGCLVKDYFPEPVTVSWNSGALTSGVHTFPAVLQSSGLYSLSSVVTVPSSSLGTKTYTCNVDHKPSNTKVDKRV[not shown - human IgG4 Fc with changes]APASSSTKKTQLQLEHLLLALQMILNGINNYKNPKLTEMLTFKFYMPKKATELKHLQCLEEELKPLEEVLNLAQSKNFHLRPRDLISNINVIVLELKGSETTFMCEYADETATIVEFLNRWITFAQSIISTLT
light: EIVLTQSPDFQSVTPKEKVTITCTASESVPPQFLHWYQQKPDQSPKLLIYASRERASGVPSRFSGSGSGTDFTLTINSLEAEDAATYYCHQFHRSPLTFGGGTKLEIKRTVAAPSVFIFPPSDEQLKSGTASVVCLLNNFYPREAKVQWKVDNALQSGNSQESVTEQDSKDSTYSLSSTLTLSKADYEKHKVYACEVTHQGLSSPVTKSFNRGEC
B10: C51E6-5-hIgG4-LAGA-df-hIL-2 (T3A/D20A/R38E/C125A) (other)
heavy: QVQLVQSGSELKKPGASVKVSCKASGYSLYGTSMHWVRQAPGQGLEWMGYISPFTGRATYAQGFTGRFVFSLDTSVSTAYLQISSLKAEDTAVYYCARDYDYRYYYAMDYWGQGTTVTVSSASTKGPSVFPLAPCSRSTSESTAALGCLVKDYFPEPVTVSWNSGALTSGVHTFPAVLQSSGLYSLSSVVTVPSSSLGTKTYTCNVDHKPSNTKVDKRV[not shown - human IgG4 Fc with S228P L235A G237A (EU numbers)]APASSSTKKTQLQLEHLLLALQMILNGINNYKNPKLTEMLTFKFYMPKKATELKHLQCLEEELKPLEEVLNLAQSKNFHLRPRDLISNINVIVLELKGSETTFMCEYADETATIVEFLNRWITFAQSIISTLT
light: B9 light

Molecular target: T1, intermediate-affinity hIL-2 receptor …
Test: cell-based or functional assay

Row | Fold decrease from rhIL-2 (TF1 + IL-2Rβ + hPD-1) [fold] | Binder
1 | ~1 | B1
2 | ~1 | B2
3 | 0 | B3
4 | ~1 | B4
5 | ~1 | B5
6 | ~4 | B6
7 | ~2 | B7
8 | ~0 | B8
9 | ~1 | B9
10 | ~0 | B10

Molecular target: T2, high-affinity hIL-2 receptor (IL-2Rαβγ) …
Test: cell-based or functional assay

Row | Fold change from rhIL-2 (NK-92) [fold] | Agonistic Activity (NK-92) [%] | Binder
11 | ~4840 |  | B1
12 | 1270 | 90 | B2
13 | ~7730 |  | B3
14 | 370 |  | B4
15 | 1600 | 90 | B5
16 | 0 |  | B6
17 | 1 |  | B7
18 | 0 |  | B8
19 | 4330 | 80 | B9
20 | 4340 | 60 | B10

Molecular target: T1, intermediate-affinity hIL-2 receptor …
Test: cell-based or functional assay
Remark: another data set of the same source

Row | Fold change from rhIL-2 (TF1 + IL-2Rβ) [fold] | Agonistic Activity (TF1 + IL-2Rβ) [%] | Binder
21 | ~2060 |  | B1
22 | ~517 |  | B2
23 | ~6730 | 80 | B3
24 | 160 |  | B4
25 | > 10000 |  | B5
26 | ~0 |  | B6
27 | ~0 |  | B7
28 | ~0 |  | B8
29 | > 10000 | 70 | B9
30 | > 10000 | 60 | B10
